Results: US8691945B2, “Antimicrobial peptides” (Singapore Health Services Pte Ltd., priority 2006, dated 2014)
Values joined by “and” are separate entries in the source; they are usually repeats but may differ in a detail not shown here. Identical values can stand only once. Not every detail of the peptide structures is certain; ends, links or a residue may be inferred. Some entries share one result that the patent states for a list of compounds. Some ranges recur; such a range may be that of the whole group of compounds. Where no end group is shown, it is not given here.

What was measured:
[1] = Molecular hydrophobicity by HPLC-MS retention time, full-length analogs; format: physicochemical; parameters: unit: min; conditions: average of three tries, one value per charged fragment
Experimental: Molecular hydrophobicity of peptides was measured by HPLC-MS at the same experimental conditions, e.g., the same peptide concentration (500 or 100 μg/ml), loading (5 μl) and flow rate of 0.2 ml/min in the same gradient 18-38% of eluant A in 32 min and relatively compared in term of retention time (Rt) of product peak.
In comparison with native hBD3, this series of linear analogs of hBD3 with full-length and 11 net positive charge are structurally homogenous as they are designed and synthesized only by uniform replacement of six bridging cysteine residues in hBD3 with other six residues with different hydrophobicity, e.g., A, S, C(Acm), F, Y and W. These linear analogs provide a well-defined model for testing the effect of overall hydrophobicity, second structure and linearity/or constraint imposed by three disulfide bridges on antibacterial, cytotoxicity and hemolytic activities. We have measured the relative molecular hydrophobicity by HPLC-MS in term of retention time (tR) at 500 ug/ml and 100 ug/ml (Table 2) and overall hydrophobicity were calculated based on the hydrophobicity scale of Wilmley and White and Hopp-Woods Scale, respectively. The change trend of overall hydrophobicity, which is calculated based on two different scale, generally fits well, and the HPLC result matches the calculations very well. The general order for the relative molecular hydrophobicity of peptides is as following: W6>F6>Y6>native hBD3>A6>S6>C(Acm)6. […] In the following sections, we will discuss the effect of overall hydrophobicity of peptide on biological activities.

[2] = test system: E. coli, B. cereus, S. aureus and P. aeruginosa; format: cell-based; conditions: for antibacterial potency in words: in comparison with hBD3; for LD90s: pooled over the pathogens
Experimental: (§1) The bacteria assayed included Escherichia coli ATCC 25922, Staphylococcus aureus ATCC 25923, Pseudomonas aeruginosa ATCC 27853, Bacillus cereus NCTC 2599. Sterile flat-bottom, 96-well tissue culture plates (92096, TPP) was used for assay. The inner surface of microplate cover was treated with 0.05% Triton X-100 in 20% ethanol to prevent condensation of water droplets. Growth kinetics in 96-well microplates was monitored (as turbidity) with the Tecan Genios Plus microplate reader using software Magellan v5.03 and 620-nm filter. Seed culture was monitored on Pharmacia Biotech Ultrospec 2000 UV/Visible spectrophotometer using 600-nm wavelength. Antibacterial activities of the analogs and wild-type hBD3 were determined for E. coli, B. cereus, S. aureus and P. aeruginosa by measuring bacteria growth in liquid broth in the presence of the serially diluted peptides. The LD50 is the concentration of peptide at which 50% of the viable cells are killed.
(§2) The bacteria were grown to mid-logarithmic phase in Mueller-Hinton Broth (MHB) from overnight plate culture. The cell suspension was diluted to OD 0.1 (600 nm, Pharmacia Biotech Ultropec 2000 UV/Visible spectrophotometer) in mixture of 10 mM Pot Phos buffer/MHB (equal volume (PMH). This cell suspension gave a concentration of 10^7 CFU/ml. Colony count was done for confirmation. A 10-fold dilution series of this suspension ranging from 10^7 to 10^1 CFU/ml was made in PMH (in sextuplicate for Staphylococcus aureus ATCC 25923 and Bacillus cereus NCTC 2599; in quadruplicate for Escherichia coli ATCC 25922 and in triplicate for Pseudomonas aeruginosa ATCC 27853). The final volume per well was 200 ul. For negative control well, 200 ul of uninoculated PMH was added.
(§3) LD50, LD90, LD99 and LD99.9 of wild-type hBD3 and its linear analogs were determined against two Gram-negative (E. Coli and P. aeruginosa) and two Gram-positive (B. cereus, S. aureus) (Table 3). See also FIGS. 7(A, B, C and D).

[3] = test system: Pseudomonas aeruginosa ATCC 27853; assay: Antimicrobial assay, bacteria growth in liquid broth with serially diluted peptides; format: cell-based; conditions: P aeruginosa, ATCC27853; for vLD50: concentration of peptide at which 50% of the viable cells are killed
Experimental: as §1, §2, §3

[4] = test system: Bacillus cereus NCTC 2599; assay: as above; format: cell-based; conditions: B cereus, NCTC2599; for vLD50: concentration of peptide at which 50% of the viable cells are killed
Experimental: as §1, §2, §3

[5] = test system: Staphylococcus aureus ATCC 25923; assay: as above; format: cell-based; conditions: Staph aureus, ATCC25923; for vLD50: concentration of peptide at which 50% of the viable cells are killed
Experimental: as §1, §2, §3

[6] = test system: Escherichia coli ATCC 25922; assay: as above; format: cell-based; conditions: E coli, ATCC25922; for vLD50: concentration of peptide at which 50% of the viable cells are killed
Experimental: as §1, §2, §3

[7] = Molecular hydrophobicity by RP-HPLC-MS retention time, C-terminus analogs; format: physicochemical; conditions: 1 mg/ml; gradient 2-15.5% in 30 mins then 15.5-31% in 3 mins of eluent B (ACN)
Experimental: The overall molecular hydrophobicity of the C-terminus hBD3 analogs were measured by RP-HPLC-MS in terms of retention time at 1 mg/ml (Table 4 and FIG. 14). RP-HPLC is an approach that is commonly employed for such comparisons of peptides or amino acid side chains among antibacterial peptides. Since the stationary phase of C18-modified silica is hydrophobic and the mobile phase (water-acetonitrile) is hydrophilic, longer retention times should be correlated with higher hydrophobicity. The measured order for the molecular hydrophobicity of the peptides is as follows: W2>F2>L2>I2>Y2>V2>C2>H2.

Row | Sequence | Relative hydrophobicity in term of retention time (Rt) in HPLC-MS, Average ([1]; 100 ug/ml) | Relative hydrophobicity in term of retention time (Rt) in HPLC-MS, Average ([1]; 500 ug/ml) | vLD90 [3] | vLD99 [3] | vLD99.9 [3] | vLD50 [3] | vLD90 [4] | vLD99 [4] | vLD99.9 [4] | vLD50 [4] | vLD90 [5] | vLD99 [5] | vLD99.9 [5] | vLD50 [5] | vLD90 [6] | vLD99 [6] | vLD99.9 [6] | vLD50 [6] | Overall hydrophobicity in terms of ACN % of peak [7] | Overall hydrophobicity in terms of Retention time (UV peak) [7] | other results
1 | GIINTLQKYYARVRGGRAAVLSALPKEEQIGKASTRGRKAARRKK [Peptide A6] | 22.36 | 22.36 and 22.39 | 20.2 µg/mL | 24.5 µg/mL | 24.9 µg/mL | 10.3 µg/mL | 29 µg/mL | 47.9 µg/mL | 49.8 µg/mL | 19.6 µg/mL | 41 µg/mL | 50 µg/mL | >100 µg/mL | 20.8 µg/mL | 23.8 µg/mL | 24.9 µg/mL | 38.5 µg/mL | 18.7 µg/mL | – | – | antibacterial potency in words [2]: relatively less potency
2 | GIINTLQKYYSRVRGGRSAVLSSLPKEEQIGKSSTRGRKSSRRKK [Peptide S6] | 20.44 | 20.33 and 20.29 | 5.9 µg/mL | 6.2 µg/mL | 11.4 µg/mL | 4.7 µg/mL | 22.25 µg/mL | 24.75 µg/mL | 25 µg/mL | 11.3 µg/mL | 15.1 µg/mL | 24.5 µg/mL | >100 µg/mL | 9.8 µg/mL | 11.8 µg/mL | 12.4 µg/mL | 12.5 µg/mL | 9.3 µg/mL | – | – | LD90s [2]: 5 to 20 µg/mL
3 | GIINTLQKYYFRVRGGRFAVLSFLPKEEQIGKFSTRGRKFFRRKK [Peptide F6] | 28.25 | 27.65 and 27.64 | 11.8 µg/mL | 12.4 µg/mL | 12.5 µg/mL | 9.2 µg/mL | 11.9 µg/mL | 12.5 µg/mL | 12.5 µg/mL | 9.4 µg/mL | 18 µg/mL | 24.4 µg/mL | 24.9 µg/mL | 10.1 µg/mL | 12 µg/mL | 17.7 µg/mL | 24.3 µg/mL | 9.4 µg/mL | – | – | LD90s [2]: 5 to 20 µg/mL
4 | GIINTLQKYYWRVRGGRWAVLSWLPKEEQIGKWSTRGRKWWRRKK [Peptide W6] | 29.66 and 29.78 and 29.67 | 29.29 and 29.28 and 29.26 | 9.5 µg/mL | 12.2 µg/mL | 12.5 µg/mL | – | 11.5 µg/mL | 12.4 µg/mL | 12.5 µg/mL | – | 5.6 µg/mL | 10.4 µg/mL | 12.4 µg/mL | – | 6.2 µg/mL | 11.9 µg/mL | 12.5 µg/mL | – | – | – | LD90s [2]: 5 to 20 µg/mL
5 | RGRKWWRRKK [Peptide W2, RGRKWWRRKK] | – | – | – | – | – | – | – | – | – | – | – | – | – | – | – | – | – | – | 25.42% | 31.92 min | –
6 | GIINTLQKYYYRVRGGRYAVLSYLPKEEQIGKYSTRGRKYYRRKK [Peptide Y6] | 24.4 and 24.35 | 23.85 and 23.81 | 12.1 µg/mL | 21.5 µg/mL | 24.5 µg/mL | 9.4 µg/mL | 23.75 µg/mL | 24.8 µg/mL | 25 µg/mL | 18.7 µg/mL | 23.6 µg/mL | 24.9 µg/mL | 48.4 µg/mL | 17.7 µg/mL | 22.6 µg/mL | 24.8 µg/mL | 25 µg/mL | 13 µg/mL | – | – | antibacterial potency in words [2]: relatively less potency
7 | RGRKYYRRKK [Peptide Y2, RGRKYYRRKK] | – | – | – | – | – | – | – | – | – | – | – | – | – | – | – | – | – | – | 11.79% | 21.75 min | –
8 | RGRKVVRRKK [Peptide V2, RGRKVVRRKK] | – | – | – | – | – | – | – | – | – | – | – | – | – | – | – | – | – | – | 9.86% | 17.46 min | –
9 | RGRKLLRRKK [Peptide L2, RGRKLLRRKK] | – | – | – | – | – | – | – | – | – | – | – | – | – | – | – | – | – | – | 12.88% | 24.19 min | –
